The source of these data is PMC4336329 (PLoS ONE, 2015).

Structures are written as SMILES. Among all 310,000 compounds or so, about 2,200 (0.71%) showed an effect of 50% or more. The effect is printed as a negative number. The list shows a part of the results.

The target of the assay is human ether-à-go-go-related gene (hERG) potassium channel (human, UniProt Q12809). The experiment in a line: primary screen, population patch clamp on CHO cells stably expressing hERG.
Sequence of human ether-à-go-go-related gene (hERG) potassium channel (Q12809 whole entry, looked up): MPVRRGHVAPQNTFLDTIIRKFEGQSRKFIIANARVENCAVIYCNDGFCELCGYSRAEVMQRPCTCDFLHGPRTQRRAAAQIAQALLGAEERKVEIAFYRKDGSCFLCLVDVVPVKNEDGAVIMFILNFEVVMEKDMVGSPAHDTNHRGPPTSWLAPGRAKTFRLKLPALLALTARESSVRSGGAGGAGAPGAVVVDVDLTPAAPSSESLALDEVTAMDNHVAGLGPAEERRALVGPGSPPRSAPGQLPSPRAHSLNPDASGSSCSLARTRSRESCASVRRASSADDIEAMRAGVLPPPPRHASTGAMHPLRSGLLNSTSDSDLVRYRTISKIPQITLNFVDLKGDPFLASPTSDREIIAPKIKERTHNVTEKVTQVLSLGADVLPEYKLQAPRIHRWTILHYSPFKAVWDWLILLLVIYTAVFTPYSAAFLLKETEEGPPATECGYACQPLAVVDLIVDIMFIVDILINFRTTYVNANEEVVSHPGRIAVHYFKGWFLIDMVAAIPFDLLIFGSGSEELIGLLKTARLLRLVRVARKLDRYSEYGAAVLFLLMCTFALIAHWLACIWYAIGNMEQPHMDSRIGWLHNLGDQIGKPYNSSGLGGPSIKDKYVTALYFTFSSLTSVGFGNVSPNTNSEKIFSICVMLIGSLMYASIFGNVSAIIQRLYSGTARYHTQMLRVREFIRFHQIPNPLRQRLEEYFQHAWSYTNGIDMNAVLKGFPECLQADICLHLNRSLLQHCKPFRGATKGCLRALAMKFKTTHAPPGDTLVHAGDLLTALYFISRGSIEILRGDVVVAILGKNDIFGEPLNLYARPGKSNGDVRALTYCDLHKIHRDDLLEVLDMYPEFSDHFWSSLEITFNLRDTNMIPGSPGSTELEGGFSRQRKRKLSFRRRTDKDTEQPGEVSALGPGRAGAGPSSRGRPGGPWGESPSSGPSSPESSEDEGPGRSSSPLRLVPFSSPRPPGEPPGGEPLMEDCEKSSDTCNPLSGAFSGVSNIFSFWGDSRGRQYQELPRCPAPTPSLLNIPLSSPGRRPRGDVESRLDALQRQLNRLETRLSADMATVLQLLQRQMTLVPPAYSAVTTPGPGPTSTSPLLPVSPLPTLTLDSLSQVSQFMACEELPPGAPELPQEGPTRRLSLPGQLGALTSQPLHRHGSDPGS
Consider `Cc1c([N+](=O)[O-])c(C(=O)Sc2ccc(Br)cc2)nn1C`, for which the “hERG current change (%, negative = inhibition) at 1uM” value was determined as 12.6%.
As for `COc1c(C)cc(C(=O)C2CCCN(C(=O)c3ccc4[nH]ccc4c3)C2)cc1C` (stereo not drawn), the figure is 12.8%.
As for `CCOc1ccc(N2C(=O)C3C4C=CC([C@H]5CC45)[C@@H]3C2=O)cc1` (stereo partly drawn), the figure is 12.8%.
As for `COc1ccc(C2C(C(=O)N3CCC(C)CC3)c3ccccc3C(=O)N2C)cc1` (stereo not drawn), the “hERG current change (%, negative = inhibition) at 1uM” value is on record as 5.4%.
As for `CCOc1ccc(-n2nc3ccc(NC(=O)c4ccc5c(c4)OCCO5)cc3n2)cc1`, the figure is 4.27%.
In the case of `CCOC(=O)CNC(=O)CSc1nc2ncc(Br)cc2[nH]1`, the “hERG current change (%, negative = inhibition) at 1uM” value is 13.5%.
As for `CN1CCN(c2nc3c(c(=O)n(C)c(=O)n3C)n2Cc2ccccc2Cl)CC1`, the figure is 10.6%; as for `Cc1cc(C)nc(NS(=O)(=O)c2ccc(NC(=O)c3ccc(S(=O)(=O)N4CC(C)OC(C)C4)cc3)cc2)n1` (stereo not drawn), 1.41%; as for `COc1ccc(CCC(=O)N2CCCC(Nc3ccccc3)C2)cc1OC` (stereo not drawn), -2.92%.
As for `COc1ccc(-c2cc(C(=O)N(C)Cc3ccccc3)no2)cc1OC`, the figure is 3.96%; as for `CCN(C(=O)c1cc2c(=O)[nH]c3ccc(C)cc3c2s1)c1ccc(F)cc1`, 1.21%.
On to `COc1ccc(Cl)cc1C(=O)OCC(=O)Nc1cccnc1Cl`, for which the “hERG current change (%, negative = inhibition) at 1uM” value is reported as 23.2%.
As for `COc1cccc(-c2noc(Cn3nc(C)c([N+](=O)[O-])c3C)n2)c1`, the figure is 15.1%; as for `Cn1cccc1C(=O)Nc1nc(-c2ccccn2)cs1`, 19.2%.
As for `C/C(=N\OC(=O)c1c(-c2ccccc2Cl)noc1C)c1ccncc1`, the figure is -0.0398%.
As for `O=c1[nH]n2c(=O)c3c([nH]c2c1N=Nc1cccc(C(F)(F)F)c1)CCCC3`, the figure is 2.18%; as for `O=C(Nc1ccc(-n2cccn2)cc1)C1CCN(Cc2ccsc2)CC1`, -41.9%; as for `CN(C)/C(Cn1cncn1)=C1/N=C(c2c(F)cccc2F)OC1=O`, 11.6%.
Take `C/C(=N/NC(=O)c1ccncc1)c1ccccc1`: the “hERG current change (%, negative = inhibition) at 1uM” value is given as 23.5%.
Regarding `Cc1ccc(CNC(=O)c2ccccc2N(C)S(C)(=O)=O)cc1`, the “hERG current change (%, negative = inhibition) at 1uM” value is listed as 11%.
As for `CCOc1c2ccc(C(=O)NCc3cc(C(F)(F)F)cc(C(F)(F)F)c3)cc2nn1CCOC`, the figure is 7.84%.
As for `COCc1cc(C)n(CC(=O)Nc2ccc(N3CCOCC3)cc2)c(=O)c1C#N`, the figure is 4.95%; as for `COC(=O)[C@H](CCSC)NC(=O)NCc1ccccc1F`, 4.83%.
For `CCN1CCN(C(=O)C2CCN(S(=O)(=O)N3CCC4(CC3)OCCO4)CC2)CC1`, the “hERG current change (%, negative = inhibition) at 1uM” value is 9.75%.
As for `CC1CCCC(C)N1C(=O)CSc1nnnn1Cc1ccccc1` (stereo not drawn), the figure is 10.5%; as for `CC(Oc1ccc(-c2ccccc2)c(F)c1)c1ccn(S(=O)(=O)c2cccc3ccccc23)n1` (stereo not drawn), 2.17%.
As for `CN(Cc1ccccc1)C(=O)CCS(=O)(=O)c1cc2c(cc1Cl)NC(=O)CO2`, the figure is -10.6%; as for `Cc1ccccc1OCC(=O)OCC(=O)NC1CC1`, 9.5%.
As for `COc1ccc(S(=O)(=O)N2CCN(C3CCCCCCC3)CC2)cc1`, the figure is 7.5%; as for `CCOc1cc(NC(=S)NCCCN2CCOCC2)c(OCC)cc1NC(=O)c1ccc(C)cc1`, 0.339%; as for `COc1ccc(-c2nnc3sc(C4CCCCC4)nn23)cc1OC`, -1.38%.
Regarding `Cc1cccc2c1cnn2C(=O)Nc1ccccc1Cl`, the “hERG current change (%, negative = inhibition) at 1uM” value is 7.27%.
As for `Cc1cc(C)n2nc(C(=O)OCC(=O)N(C)C3CCS(=O)(=O)C3)nc2n1` (stereo not drawn), the figure is 8.05%; as for `COc1cc(NC(=O)c2ccccc2)c(OC)cc1NC(=O)Cc1ccc(C)cc1`, 12.8%.
As for `COc1ccccc1/C=C/C=N/n1c(-c2n[nH]c3c2CCC3)n[nH]c1=S`, the figure is 10.7%; as for `CCOc1ccc(CNC(=O)CCc2cn(C)c3ccccc23)cc1`, 15.5%; as for `COc1cccc(OC)c1C(=O)Nc1ccc(N2CCCC2)cc1`, 14.4%.
As for `O=C(CCC(F)(F)F)N1CCC(CO)(CCc2ccccc2)CC1`, the figure is 13.8%.
As for `CN(C)CC(C)(C)CNC(=O)C1CCN(Cc2ccccc2O)CC1`, the “hERG current change (%, negative = inhibition) at 1uM” value worked out at 11.6%.
As for `CCOc1ccc(C2NC(=O)C(C#N)=C(S)N2c2ccc(C)cc2)cc1OC` (stereo not drawn), the figure is 13.9%; as for `COc1ccc(C2(CNC(=O)c3cccs3)CCOCC2)cc1`, 6.57%.
As for `CCOc1ccc(NC2=NC(C)(C)N=C(N)N2)cc1`, the figure is 10.1%; as for `CC(NC(=O)C(c1ccccc1)c1ccccc1)C(=O)O` (stereo not drawn), 0.939%.
As for `Oc1ccc2ccccc2c1N=Nc1nccs1`, the figure is 19.1%; as for `CCCN(CCC)S(=O)(=O)c1ccc(C(=O)Nc2nnc(COC)o2)cc1`, 2.61%.
